{"source": "PubChem BioAssay AID588855", "about": "(National Center for Advancing Translational Sciences (NCATS), 2011)", "note": "Where “and” joins values, the source holds several entries; their conditions need not be identical. Equal values may be shown once. Out of some 410,000 compounds screened, about 5,000 (1.2%) were called active. The shares of active, inactive and inconclusive entries below differ from those in the screen. Calls come from the whole dose curve; as a rule, active = well fitted inhibition curve with a large enough effect; inconclusive = small, poorly fitted or top-dose-only effect; inactive = no such curve, though single readings can be large or run the other way. A potency beside an inconclusive call is a rough fit, not a confirmed value. % is set by controls: 0 for no effect and ±100 for the full control effect; potency is the fitted concentration of half-maximal effect; tags give direction and shape of the fitted curve.", "data": [{"experiment": "qHTS for Inhibitors of TGF-b; note: nearly all actives have a fitted effect of over 65% in size", "settings": "HepG2 CAGA-GFP TGF-b/SMAD3 reporter, GFP fluorescence, 18 h, TGF-beta stimulated, 500 pg/mL final; series mostly up to 46.1 µM; activity, negative = inhibition: at the top concentration", "procedure,_shortened": "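Smad-responsive CAGA-GFP expression was quantified in HEPG2 cells exposed to compounds and 500 pg/mL final TGF-beta for 18 h at 37 degrees C; unstimulated wells defined full inhibition.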", "values": [{"smiles": "CCCCNC(=S)N/N=C1\\CCCCc2ccccc21", "Potency": "inconclusive: 22.4 µM [inhibitor, partial curve, poor fit]"}, {"smiles": "CCOC(=O)C1=C[C@@H](C(C)C)N(S(=O)(=O)c2ccc([N+](=O)[O-])cc2)[C@H]1c1ccccc1", "Potency": "inconclusive: 12.6 µM [inhibitor, partial curve, poor fit]"}, {"smiles": "O=C(O)CN1C(=O)/C(=C\\c2cccc(OCc3ccccc3)c2)SC1=S", "Potency": "inconclusive: 35.5 µM [inhibitor, single point]"}, {"smiles": "CCOc1ccc(CONS(=O)(=O)c2ccc(NC(C)=O)cc2)cc1Cl", "Potency": "inconclusive: 6.31 µM [inhibitor, single point]"}, {"smiles": "NC(=O)CC(NC(=O)Cc1cccc2ccccc12)c1ccc(N2CCN(c3ccc(F)cc3)CC2)c([N+](=O)[O-])c1", "note": "(stereo unspecified)", "activity, negative = inhibition": "inactive: -17.2%"}, {"smiles": "COc1ccccc1N1CCN(C2CCCN(C(=O)CN3CCCC3=O)C2)CC1", "note": "(stereo unspecified)", "activity, negative = inhibition": "inactive: 8.4%"}, {"smiles": "COc1ccc([C@H]2CC(=O)C=C(c3ccc4c(c3)sc3ccccc34)C2)cc1", "Potency": "inconclusive: 3.98 µM [inhibitor, full curve, poor fit]"}, {"smiles": "Cc1cc(C)c2c(c1)cc(C)c1nnc(SCC(=O)Nc3ccc(S(=O)(=O)N4CCCCC4)cc3)n12", "Potency": "inconclusive: 8.91 µM [inhibitor, partial curve]"}, {"smiles": "CCn1c(N)[n+](CC(=O)Nc2ccc(SC(F)F)cc2)c2ccccc21", "Potency": "inconclusive: 35.5 µM [inhibitor, single point]"}, {"smiles": "Cc1cc(C)c2c(=O)c3c(oc2c1)C(=O)N(Cc1ccc(F)cc1)C3c1cccc(O)c1", "note": "(stereo unspecified)", "Potency": "inconclusive: 14.1 µM [inhibitor, partial curve, poor fit]"}, {"smiles": "O=C(CCS(=O)(=O)c1cccs1)Nc1ccc(C(=O)Nc2cccc(Cl)c2)cc1", "activity, negative = inhibition": "inactive: -12.1%"}, {"smiles": "O=C(Nc1nnc(Cc2ccc(Cl)cc2)s1)C1CCN(C(=O)c2ccco2)CC1", "Potency": "inconclusive: 35.5 µM [inhibitor, single point]"}, {"smiles": "CCC(=O)N1CCCc2cc(S(=O)(=O)N3CCC(C(=O)Nc4ccc(F)c(F)c4)CC3)ccc21", "Potency": "inconclusive: 3.55 µM [inhibitor, full curve]"}, {"smiles": "COc1ccc(CNc2ccc3cc(S(=O)(=O)N4CCCCC4)ccc3n2)cc1", "activity, negative = inhibition": "inactive: -23.3%"}, {"smiles": "COc1ccc(/C=C/C(=O)OCC(=O)N2c3ccccc3CC2C)cc1OC", "note": "(stereo unspecified)", "activity, negative = inhibition": "inactive: 0.746%"}, {"smiles": "Clc1ccc(-c2csc(-c3cccnc3)n2)s1", "Potency": "inconclusive: 14.1 µM [inhibitor, single point]"}, {"smiles": "O=C(Cc1ccccc1)Nc1c(C(=O)N2CCN(c3ccc(F)cc3)CC2)oc2ccccc12", "activity, negative = inhibition": "inactive: -3.53%"}, {"smiles": "Cc1ccc(-c2cc(NC(=O)C(C)Oc3ccc(C)c(C)c3)on2)cc1", "note": "(stereo unspecified)", "Potency": "inconclusive: 12.6 µM [inhibitor, single point]"}, {"smiles": "Cc1cc(C)cc(NC(=O)C2CCC(CNC(=O)[C@@H]3Cc4ccccc4CN3)CC2)c1", "note": "(stereo partly specified)", "Potency": "inconclusive: 11.2 µM [inhibitor, partial curve, poor fit]"}, {"smiles": "Cc1ccccc1NC(=O)Nc1ccccc1N1CCCCC1", "Potency": "inconclusive: 11.2 µM [inhibitor, single point]"}, {"smiles": "O=C(NCCc1ccccc1)c1ccc2c(c1)CCN2S(=O)(=O)c1ccc(Br)cc1", "Potency": "inconclusive: 6.31 µM [inhibitor, single point]"}, {"smiles": "CC(=O)c1ccc(NC(=O)CSc2nnc(NC(=O)CN3CCOCC3)s2)cc1", "activity, negative = inhibition": "inactive: -7.19%"}, {"smiles": "CC(NC(=O)c1nn(C)c2c1CSc1ccccc1-2)c1ccccc1", "note": "(stereo unspecified)", "Potency": "inconclusive: 15.8 µM [inhibitor, single point]"}, {"smiles": "O=C(Nc1ccc(Cl)cc1C(F)(F)F)c1ccccc1", "Potency": "inconclusive: 11.2 µM [inhibitor, partial curve]"}, {"smiles": "COC(=O)c1sc2cccc(F)c2c1S(=O)(=O)N1CCN(c2ccccc2OC)CC1", "Potency": "inconclusive: 35.5 µM [inhibitor, single point]"}, {"smiles": "CCO[C@H]1OC(C(=O)NC2CC2)=C[C@@H](C2CCCCC2)[C@@H]1CCCO", "Potency": "inconclusive: 15.8 µM [inhibitor, single point]"}, {"smiles": "CN(CC(=O)N1CCOCC1)S(=O)(=O)c1ccc2ccccc2c1", "activity, negative = inhibition": "inactive: -5.23%"}, {"smiles": "CS(=O)(=O)c1ccc2nc(NC(=O)Nc3cccc(Cl)c3)sc2c1", "Potency": "active: 2.24 µM"}, {"smiles": "COc1ccc(CNCCC(c2ccc(F)cc2)c2ccc(OC(C)C)cc2)cc1OC", "note": "(stereo unspecified)", "Potency": "inconclusive: 35.5 µM [inhibitor, single point]"}, {"smiles": "OCCN(CCO)c1cc2c3ccccc3ccc2c2ccccc12", "Potency": "inconclusive: 20 µM [inhibitor, single point]"}, {"smiles": "S=c1[nH]nc(COc2ccccc2)n1/N=C/c1cccs1", "activity, negative = inhibition": "inactive: -1.18%"}, {"smiles": "NNC(=O)COc1ccc(-c2n[nH]c(C(F)(F)F)c2-c2ccc(Br)cc2)c(O)c1", "Potency": "inconclusive: 22.4 µM [inhibitor, single point]"}, {"smiles": "CC(Oc1ccc(Cl)cc1)c1ccnn1S(=O)(=O)c1ccc(Cl)cc1", "note": "(stereo unspecified)", "activity, negative = inhibition": "inactive: -20.4%"}, {"smiles": "COc1ccc(-c2ccc3oc(-c4ccc(OC)cc4)c(C#CCCO)c3c2)cc1", "Potency": "inconclusive: 10 µM [inhibitor, partial curve]"}, {"smiles": "O=C(CSc1nnc(-c2cccnc2)n1C1CCCCC1)NC1CCCCC1", "activity, negative = inhibition": "inactive: 0.741%"}, {"smiles": "CCOC(=O)C1(Cc2ccc(Cl)cc2)CCN(C(C)Cc2ccc(O)c(OC)c2)CC1", "note": "(stereo unspecified)", "Potency": "inconclusive: 11.2 µM [inhibitor, partial curve]"}, {"smiles": "COc1cccc(C2=NOC(C(=O)Nc3cccc(C(C)=O)c3)C2)c1", "note": "(stereo unspecified)", "Potency": "inconclusive: 1.78 µM [inhibitor, partial curve, poor fit]"}, {"smiles": "C/C(=N\\Nc1nccnc1Cl)c1ccc(Br)cc1", "Potency": "inconclusive: 14.1 µM [inhibitor, single point]"}, {"smiles": "CC(=O)c1cccc(Nc2cc(C)nc3ccccc23)c1", "Potency": "inconclusive: 12.6 µM [inhibitor, partial curve, poor fit]"}, {"smiles": "O=C(c1ccc(Cl)c(Cl)c1)N1CCC(=O)N(C(COCc2ccccc2)Cc2ccccc2)CC1", "note": "(stereo unspecified)", "Potency": "inconclusive: 31.6 µM [inhibitor, partial curve, poor fit]"}, {"smiles": "CCOc1ccc(CCNC(=O)CS(=O)Cc2nc(-c3ccc(C)cc3)oc2C)cc1OCC", "note": "(stereo unspecified)", "Potency": "inconclusive: 35.5 µM [inhibitor, single point] and inconclusive: 5.62 µM [inhibitor, full curve]"}]}]}
